# Source: PubChem BioAssay AID1948 (National Center for Advancing Translational Sciences (NCATS), 2009)
# In all, about 110,000 compounds went through this assay and about 20 (0.02%) were called active. The shares of active, inactive and inconclusive entries below differ from those in the screen. The call rests on the fitted dose curve; in most records, active means well fitted activation curve with a large enough effect; inconclusive means small, poorly fitted or top-dose-only effect; inactive means no such curve, though single readings can be large or run the other way. Potencies of inconclusive entries are left out as doubtful fits.
# Experiment: qHTS Assay for Compounds that Induce Erasure of Genomic Imprints;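 on activity change, positive = activation: 0% = negative control wells on the plate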
# Settings: mouse ES Peg3-LacZ reporter, beta-gal luminescence, 40 h; activity change, positive = activation: at 10.9 µM (top of the series) unless noted
# How it was run: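 Readout: BetaGlo luminescence (5 min, room temp) for LacZ from the normally silent maternal Peg3 allele in female Peg3LacZ-Neo ES cells. Cells 300/well, 40 h, 37C, 5% CO2. Data normalized per plate to negative controls.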
# Potency means the concentration at half of the fitted maximal effect; tags describe the fitted curve by direction and shape.
SMILES,Potency,"activity change, positive = activation"
O=C(CCS(=O)(=O)Cc1ccccc1F)NCCCN1CCCCC1,"inconclusive [activator, single point]",
COc1ccc(-c2cn3cccnc3n2)cc1NC(=O)c1c(F)cccc1F,inactive,
Cc1ccc(-n2nc3c(=O)n(CCCC(=O)NCCc4ccccc4)nc(C)c3c2C)cc1,,inconclusive: 67.4% [activator]
COc1ccccc1NC(=O)CCC(=O)Nc1ccccc1OC,"inconclusive [activator, single point]",
COc1cccc(Cn2c(=O)c(C)nc3cnc(Nc4cccc(OC)c4)nc32)c1,"inconclusive [activator, single point]",
Cc1ccccc1C(=O)/C=C1\NC(=O)CS1,"inconclusive [activator, single point]",
COc1ccccc1C(=O)N1CCN(C(=O)c2ccncc2)CC1,"inconclusive [activator, single point]",
CN(Cc1ccccc1)c1nc2c(c(=O)[nH]c(=O)n2C)n1CCOc1ccccc1,"inconclusive [activator, single point]",
CCN(CCNC(=O)C1CCN(Cc2nc(-c3ccc(Cl)cc3)oc2C)CC1)c1ccccc1,inactive,
O=C(CSc1nc(=O)n(Cc2ccco2)c2c1CCC2)NCc1ccccc1,,inconclusive: 37.4% [activator]
CCc1ccc2oc(C(=O)N(Cc3ccc(N(C)C)cc3)Cc3ccco3)c(C)c2c1,,inconclusive: 30.3% [activator]
Cc1noc(C)c1COC(=O)c1ccccc1Oc1ccccc1,inactive,
COC(=O)c1cc(Nc2nc3ccccc3nc2NS(=O)(=O)c2ccc(C)cc2)ccc1Cl,,inconclusive: 204% [activator]
CNC(=O)C1CCC(Cn2c(=O)c3sccc3n(Cc3cc(C)ccc3C)c2=O)CC1 (stereo not given),,inconclusive: 46.8% [activator]
Cc1nc2cc(-c3ccccc3)nn2c(C)c1CCC(=O)N1CCN(c2ccc(F)cc2)CC1,,inconclusive: 42.3% [activator]
O=C(COc1ccccc1Cl)Nc1ccc(OCc2cc(=O)n3ccsc3n2)cc1,inactive,
Clc1ccc(CCNc2nc3cc(Cl)c(Cl)cc3n3cnnc23)cc1,inactive,
COc1ccc(CC(=O)Nc2nc3c(s2)CCCC3)cc1,,inconclusive: 30.7% [activator]
CCn1c(=O)c2sccc2n2c(CCCC(=O)N3CCN(c4ccc(F)cc4)CC3)nnc12,,inconclusive: 39.4% [activator]
CCCCSc1nc2sc3c(c2c(=O)n1-c1ccccc1C)CC(C)(C)OC3,,inconclusive: 42.2% [activator]
